Measurements: PMC13083723 (Patterns, 2026)
About 190 (3.5%) of roughly 5,400 compounds showed an effect of 50% or more. Some of the results follow. Positions of bridges follow the written chain, without caps; N, C: chain ends. Non-standard residues stand in square brackets, D forms with d. Residues, ends and D or L forms follow the SMILES beside them. hArg = N=C(N)NCCCC[CH](N)C(=O)O; Mpa = O=C(O)CCS

Each compound was assayed on Vero-E6 (assay: primary screen, phospholipidosis by LipidTOX staining; higher = more effect of the substance). Conditions: 10 µM.
Description: To measure drug-induced PLD in Vero-E6 cells, we used the HCS LipidTOX Red Phospholipidosis Detection Reagent (Invitrogen, #H34351), which is non-toxic to cell growth and remains well retained after aldehyde fixation. In this setup, compounds (at 10 μM concentration) and controls (amiodarone: 10 μM concentration; DMSO: 0.1 v/v %) were added to clear-bottom, 384-well plates (PhenoPlate 384-well, black, optically clear flat bottom, tissue-culture treated, Revvity #6057302) using the Echo Liquid Handler (Labcyte).
With `COc1ccccc1OCC(O)CN1CCN(CC(=O)Nc2c(C)cccc2C)CC1` (stereo not shown) the result_ITMP was -3.35%. `O=[N+]([O-])c1cccc2cn[nH]c12` gave a result_ITMP of -13%. `COc1cc([C@@H]2c3cc4c(cc3[C@@H](O[C@@H]3O[C@@H]5CO[C@@H](C)O[C@H]5[C@H](O)[C@H]3O)[C@H]3COC(=O)[C@H]23)OCO4)cc(OC)c1O` gave a result_ITMP of -0.38%. Compound `CC[C@@H](C)Nc1cc(C(=O)NC2CC3CCC(C2)N3c2ccc(C(=O)C3CC3)cn2)c(C)cc1C(N)=O` (stereo partly shown) has a result_ITMP of -8.13%. `C[C@H]1C[C@@H]2[C@H]([C@@H](O)C[C@@]3(C)[C@H]2CC[C@]3(O)C(=O)CO)[C@@]2(C)C=CC(=O)C=C12` was tested, and the result_ITMP was -4.05%. Work on `O=C(O)/C=C/c1ccc(O)cc1` yielded a result_ITMP of 0.1%. `CC(C)[C@@H](C)/C=C/[C@@H](C)[C@H]1CC[C@H]2C3=CC=C4C[C@@H](O)CC[C@]4(C)[C@H]3CC[C@]12C` gave a result_ITMP of -5.48%. `CS(=O)(=O)OCOS(C)(=O)=O` gave a result_ITMP of -5.81%. `CNC(=O)ON(C(C)=O)C(=O)NC` gave a result_ITMP of -4.07%. Compound `COc1ccc(/C=C/CCCCOc2ccc(C(=O)c3cccc(C(=O)O)c3)cc2CCC(=O)O)cc1` has a result_ITMP of -4.54%. Work on `O=C(O)c1cc(C(=O)O)c(C(=O)N(Cc2cccc(Oc3ccccc3)c2)[C@H]2CCCc3ccccc32)cc1C(=O)O` yielded a result_ITMP of 0.15%. `CCn1cc(-c2cccc(C(F)(F)F)c2)c2sc(C(=N)NC3CCS(=O)(=O)CC3)cc2c1=O` gave a result_ITMP of -2.06%. In the case of `CCCCCCOC(=O)CCC(=O)CN`, the result_ITMP is reported as -1.79%. For `O=C(Oc1ccc(Br)cc1)N1CCN2CCC1CC2`, the result_ITMP was 0.72%. Work on `CC[C@@]1(O)C(=O)OCc2c1cc1n(c2=O)Cc2cc3c(N)cccc3nc2-1` yielded a result_ITMP of 41.6%. With `O=C(NCCN1CCC2(CC1)C(=O)NCN2c1cccc(F)c1)c1ccc(F)c(F)c1` the result_ITMP was 60.1%. For `CC(C)NCC(O)c1ccc2ccccc2c1` (stereo not shown), the result_ITMP was 20.2%. Compound `CC(C)C[C@H](NC(=O)[C@H](Cc1ccccc1)NC(=O)CNC(=O)[C@H](C)NC(=O)[C@@H](N)Cc1ccc(O)cc1)C(=O)O` has a result_ITMP of 0.21%. Work on `Clc1cccc(C(c2ccc3nc[nH]c3c2)n2ccnc2)c1` (stereo not shown) yielded a result_ITMP of -2.01%. For `CC1=C[C@H](O)CC(C)(C)[C@H]1/C=C/C(C)=C/C=C/C(C)=C/C=C/C=C(C)/C=C/C=C(C)/C=C/C1=C(C)C[C@@H](O)CC1(C)C`, the result_ITMP was 0.14%. With `CCc1nc2c(C)nc(C)cc2n1-c1ccc(CCNC(=O)NS(=O)(=O)c2ccc(C)cc2)cc1` the result_ITMP was -1.88%. Work on `CCCc1c(OCC(O)COc2ccc3c(=O)cc(C(=O)O)oc3c2CCC)ccc(C(C)=O)c1O` (stereo not shown) yielded a result_ITMP of -5.36%. `C[C@H]1CNCCCN1S(=O)(=O)c1cccc2cncc(F)c12` was tested, and the result_ITMP was 0.75%. With `N#Cc1c(N)nc(SCC(N)=O)c(C#N)c1-c1ccc(OCC2CC2)cc1` the result_ITMP was -1.94%. `C#Cc1cnc2[nH]c(=O)n(C(CC)CC)c2n1` showed a result_ITMP of -1.48%. Compound `Cc1ccc(S(=O)(=O)N2CCC[C@H]2c2ccc(F)cc2)cc1` has a result_ITMP of 9.2%. For `N[C@H](C(=O)O)[C@H](O)c1ccc(O)c(O)c1`, the result_ITMP was 8.63%. For `CN(C)c1nc(N(C)C)nc(N(C)C)n1`, the result_ITMP was -11.5%. `COc1cc2c(cc1-c1c(C)noc1C)ncc1[nH]c(=O)n([C@H](C)c3ccccn3)c12` showed a result_ITMP of 27.7%. `O=C(OC(C(F)(F)F)C(F)(F)F)N1CCN(Cc2cccc(Oc3ccccc3)c2)CC1` gave a result_ITMP of -7.46%. With `N=C(N)NCCCC[C@@H]1NC(=O)CCSSC[C@@H](C(N)=O)NC(=O)[C@@H]2CCCN2C(=O)[C@H](Cc2c[nH]c3ccccc23)NC(=O)[C@H](CC(=O)O)NC(=O)CNC1=O` ([Mpa][hArg]GDWPC-NH2; disulfide 1-7; configuration not given here) the result_ITMP was -2.04%. `COc1nccc(-c2c(-c3ccc(F)cc3)ncn2C2CCNCC2)n1` showed a result_ITMP of -2.21%. In the case of `CCn1c(=O)c(-c2cc[nH]n2)cc2c(C)nc(N)nc21`, the result_ITMP is reported as -0.35%. Compound `CC(=O)OCC1=C(C(=O)O)N2C(=O)[C@@H](NC(=O)CS/C(=N/C(C)C)NC(C)C)[C@H]2SC1` has a result_ITMP of 0.2%. Compound `CCO[C@@H]1OC(=O)C[C@@H]1NC(=O)[C@@H]1CCCN1C(=O)[C@@H](NC(=O)c1ccc(N)c(Cl)c1)C(C)(C)C` has a result_ITMP of 0.09%. Work on `O=C(NO)c1ccc2[nH]c(=O)c(CCCc3ccccc3)nc2c1` yielded a result_ITMP of -1.98%. `CCN1C(=O)CN=C2NC=C(c3ccc(-c4nnc[nH]4)nc3C)N=C21` was tested, and the result_ITMP was -2.57%. In the case of `CCN(CC)CCNC(=O)c1cc(S(C)(=O)=O)ccc1OC`, the result_ITMP is reported as -4.53%. `O=C(CCCN1CC=C(n2c(=O)[nH]c3ccccc32)CC1)c1ccc(F)cc1` showed a result_ITMP of 2.35%. For `C[C@@]1(F)[C@H](O)[C@@H](CO)O[C@H]1n1ccc(N)nc1=O`, the result_ITMP was -1.58%. `CCCCCCCC/C=C\CCCCCCCC(=O)N[C@@H](CO)Cc1ccc(O)cc1` showed a result_ITMP of -1.63%. For `CCCN(CCC)C1CCc2ccc(O)cc2C1` (stereo not shown), the result_ITMP was 13.4%. `Oc1c(I)cc(I)c2cccnc12` gave a result_ITMP of -3.2%. Work on `O=C(N[C@H](Cc1ccccc1)C(=O)O)c1sc2cc(F)ccc2c1Cl` yielded a result_ITMP of -1.39%. `CCCCn1ccc(N2CCC(c3ccccc3)CC2)c(Cl)c1=O` gave a result_ITMP of -1.57%. `C#CCN(C)Cc1ccccc1` gave a result_ITMP of -4.32%. With `Cc1cc(C)c(N)c(C#Cc2cccc(F)c2)n1` the result_ITMP was -8.54%. Work on `CN(C)c1ccc(C(=O)NCCCCCCC(=O)NO)cc1` yielded a result_ITMP of -7.81%. `CCCCCC(C)N` (stereo not shown) showed a result_ITMP of -1%. `COc1ccc2cc(CCC(C)=O)ccc2c1` showed a result_ITMP of -6.81%. Work on `Cc1cccc(/C=C/c2ccccc2)n1` yielded a result_ITMP of -1.79%. In the case of `CCn1cc(C(=O)O)c(=O)c2ccc(C)nc21`, the result_ITMP is reported as -1.64%. With `Cc1cc(C)cc(C(=O)N(C)[C@H](Cc2ccc(-c3ccccc3)cc2)C(=O)N[C@@H](Cc2c[nH]c3ccccc23)C(=O)O)c1` the result_ITMP was -0.52%. Work on `COc1ccc(-c2oc3c(CC=C(C)C)c(O[C@@H]4O[C@H](CO)[C@@H](O)[C@H](O)[C@H]4O)cc(O)c3c(=O)c2O[C@@H]2O[C@@H](C)[C@H](O)[C@@H](O)[C@H]2O)cc1` yielded a result_ITMP of -0.72%. For `CCCCCCCCCCCCCCCC(=O)OCCC1CCN(CCCN2c3ccccc3Sc3ccc(S(=O)(=O)N(C)C)cc32)CC1`, the result_ITMP was -5.2%. Work on `COc1ccc(OC)c(CN(C(C)=O)c2cc(F)ccc2Oc2ccccc2)c1` yielded a result_ITMP of -2.6%. `Cc1ccc(S(=O)(=O)NC(=O)NN2CC3CCCC3C2)cc1` (stereo not shown) was tested, and the result_ITMP was -6.34%. In the case of `COCc1nnc(N2CC(Oc3ccc(F)cc3Cl)C2)n1-c1ccc(OC)nc1`, the result_ITMP is reported as -7.42%. For `Nc1nc(S)c2ncn([C@@H]3O[C@H](CO)[C@@H](O)[C@H]3O)c2n1`, the result_ITMP was 19.1%. For `c1ccc(C2CN3CCSC3=N2)cc1` (stereo not shown) [R4A_0001404_001 / SPE_K73107279], the result_ITMP was -7.98%. For `c1ccc(C(NCCNC(c2ccccc2)c2ccccc2)c2ccccc2)cc1`, the result_ITMP was 30.1%. For `NC(N)=NCCC[C@H](NC(=O)c1sccc1NS(=O)(=O)c1cccc2nsnc12)C(=O)O`, the result_ITMP was 3.71%. Compound `O=c1c(O)c(-c2cc(O)c(O)c(O)c2)oc2cc(O)cc(O)c12` has a result_ITMP of -9.27%. `CC(C)(C)C(=O)Oc1ccc(S(=O)(=O)Nc2ccccc2C(=O)NCC(=O)[O-])cc1` was tested, and the result_ITMP was -1.15%. Work on `CNC(=O)c1ccccc1Sc1ccc2c(/C=C/c3ccccn3)[nH]nc2c1` yielded a result_ITMP of -1.97%. In the case of `CCN(CC)CCOc1ccc(Cc2ccccc2)cc1`, the result_ITMP is reported as 30.2%. Work on `CCC(N)C(O)c1ccc(O)c(O)c1` (stereo not shown) yielded a result_ITMP of -3.39%. For `CCn1cc(C(=O)O)c(=O)c2cnc(N3CCNCC3)nc21`, the result_ITMP was -3.43%. `CCCCS(=O)(=O)N[C@@H](Cc1ccc(OCCCCC2CCNCC2)cc1)C(=O)O` showed a result_ITMP of 0.26%. `NCCS(=O)(=O)O` was tested, and the result_ITMP was -1.24%. `COc1cc2nc(N3CCN(C(=O)c4ccco4)CC3)nc(N)c2cc1OC` was tested, and the result_ITMP was 0.05%. `O=C1C=Cc2cc(Br)ccc2C1=O` gave a result_ITMP of -7.69%. `O[C@H]1[C@H](O)[C@@H](O)CN2CC[C@H](O)[C@H]12` gave a result_ITMP of -1.92%. `CCCCCCCCCCCCCC(=O)[O-].CCCCCCCCCCCCCC(=O)[O-].NC1CCCCC1N.[Pt+2]` showed a result_ITMP of 0.26%. In the case of `CCCC[C@@H](C=O)NC(=O)[C@H](CC(C)C)NC(=O)OCc1ccccc1`, the result_ITMP is reported as -1.78%. `Cc1ccc(NC(=O)c2ccc(CN3CCN(C)CC3)cc2)cc1Nc1nc(-c2cccnc2)cs1` was tested, and the result_ITMP was 54%. `COc1nc(C)nc(Cl)c1NC1=NCCN1` gave a result_ITMP of -1.91%. `C[C@](O)(COc1ccc(C#N)cc1)C(=O)Nc1ccc(C#N)c(C(F)(F)F)c1` showed a result_ITMP of -3.77%. With `Oc1ccc2c3c1O[C@H]1c4c(c5ccccc5n4Cc4ccccc4)C[C@@]4(O)C(C2)N(CC2CC2)CC[C@]314` the result_ITMP was 47.6%. Compound `CO[C@@]1(NC(=O)C(C(=O)[O-])c2ccc(O)cc2)C(=O)N2C(C(=O)[O-])=C(CSc3nnnn3C)CO[C@@H]21` (stereo partly shown) has a result_ITMP of -4.09%. Compound `CS(=O)(=O)Nc1ccc(-c2coc3cc(OCc4cccc(C(=O)O)c4)ccc3c2=O)cc1` has a result_ITMP of 4.65%. For `C=CC[C@@H]1/C=C(\C)C[C@H](C)C[C@H](OC)[C@H]2O[C@@](O)(C(=O)C(=O)N3CCCC[C@H]3C(=O)O[C@H](/C(C)=C/[C@@H]3CC[C@@H](O)[C@H](OC)C3)[C@H](C)[C@@H](O)CC1=O)[C@H](C)C[C@@H]2OC`, the result_ITMP was 0.53%. `BrC1C(Br)C(Br)C(Br)C(Br)C1Br` (stereo not shown) gave a result_ITMP of -2.01%. Work on `O=C(N/N=C/c1ccc(O)c(O)c1)c1cc2ccccc2cc1O` yielded a result_ITMP of -0.67%. Compound `O=S(=O)(O)c1ccc(-c2c3nc(c(-c4ccc(S(=O)(=O)O)cc4)c4ccc([nH]4)c(-c4ccc(S(=O)(=O)O)cc4)c4nc(c(-c5ccc(S(=O)(=O)O)cc5)c5ccc2[nH]5)C=C4)C=C3)cc1` has a result_ITMP of 1.12%.
